Out of some 73,000 compounds screened, about 1,800 (2.5%) were called active. Inconclusive means that the source gave no clear call. Such entries were picked first, then a sample of the others. Calls come from the whole dose curve; as a rule, active = well fitted activation curve with a large enough effect; inconclusive = small, poorly fitted or top-dose-only effect; inactive = no such curve, though single readings can be large or run the other way. Potencies of inconclusive entries are left out as doubtful fits.
assay: qHTS Assay for Agonists of the Thyroid Stimulating Hormone Receptor: Activators of Intracellular cAMP Concentrations in Parental HEK 293; settings: parental HEK293 CNG cAMP sensor, membrane potential fluorescence; activation: at 57.1 µM (top of the series) unless noted; note: nearly all actives have a fitted effect of over 55% in size; for activation: % of control where 0% means no effect
Method in brief: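 Parental HEK 293 cells stably expressing a cAMP-gated CNG channel were loaded with membrane potential dye containing 100 uM RO 20-1724 for 60 min. Compound added for 30 min; depolarization read as fluorescence intensity at 590 nm.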
Potency is the fitted concentration of half-maximal effect; tags give direction and shape of the fitted curve.

With Cc1ccc2c(CC(=O)Nc3ccc(N4CCN(C)CC4)cc3C)coc2c1 as the compound, how does the Potency read?
Its Potency is “inactive”.

For COc1cccc(-n2nnc3c(=O)n(Cc4ccccc4Cl)cnc32)c1, which Potency is on record?
Its Potency is inconclusive [activator, single point].

With CS(=O)(=O)N1CCC2(CCCN(Cc3ccc(C#N)cc3)C2)CC1 as the compound, how does the Potency read?
Its Potency is inconclusive [activator, partial curve].

Which Potency does the source give for CC(O)[C@H](NC(=O)C1(c2ccccc2)CCN(C(=O)OC(C)(C)C)CC1)C(=O)O (stereo partly drawn) here?
The Potency was inconclusive [activator, single point].

For CN1/C(=C/C=N/n2cnnc2)C(C)(C)c2ccccc21, which Potency is on record?
Its Potency is “inactive”.

For CCOC(=O)CSc1nc2ccccc2c(=O)n1C1CCCC1, which Potency is on record?
Its Potency is “inactive”.

For C=CCOC(=O)C1=C(C)N=C2SCCC(=O)N2C1c1cccs1 (stereo not drawn), which Potency is on record?
Its Potency is inconclusive [activator, single point].

For CCc1cc2cc(C)ccc2nc1SCC(=O)N1CCN(C(=O)c2ccco2)CC1, which Potency is on record?
The Potency was inconclusive [activator, single point].

With CO[C@H]1COC(=O)[C@@H](C)COC(=O)[C@@H](OCc2ccccc2)/C=C\[C@@H]1C as the compound, how does the activation read?
The activation was inactive: 18.5% [at 11.4 µM].

Which Potency does the source give for COc1ccccc1N(C(=O)CNS(=O)(=O)c1ccccc1)C(C(=O)NCc1ccco1)C(C)C (stereo not drawn) here?
The Potency was inconclusive [activator, full curve].

Which Potency does the source give for COc1cc(SC)ccc1C(=O)Nc1ccc(S(=O)(=O)N2CCCC2)cc1 here?
Its Potency is “inactive”.

For Nc1ccc2oc(-c3ccccn3)nc2c1, which Potency is on record?
Its Potency is “inactive”.

Which Potency does the source give for C=CCn1c(SCC(=O)c2ccc(OC)cc2)nnc1-c1cc2cccc(OC)c2o1 here?
The Potency was inconclusive [activator, partial curve].

For CCOC(=O)C1CCN(C(=O)C2CCN(c3nc4ccc(OC)cc4s3)CC2)CC1, which Potency is on record?
The Potency was inconclusive [activator, single point].

Which Potency does the source give for COc1ccc(N2CCN(Cc3nc(-c4ccc(Cl)cc4Cl)no3)CC2)cc1 here?
The Potency was “inactive”.

Which Potency does the source give for O=C(Nc1ccc(F)cc1F)c1ccc(COc2c(F)c(F)cc(F)c2F)o1 here?
The Potency was inconclusive [activator, single point].

Which Potency does the source give for COc1ccc(O[C@H]2C=C[C@@H](c3ccccc3)O[C@H]2CO/N=C2/[C@H]3O[C@@H]3[C@@H](O)[C@H]3[C@H]2CCn2c(=O)n(-c4ccccc4)c(=O)n23)cc1 here?
Its Potency is inconclusive [activator, single point].

For CC(CCc1ccccc1)C(=O)NO (stereo not drawn), which activation is on record?
The activation was inactive: 20% [at 11.4 µM].

Which Potency does the source give for COC(=O)CS(=O)(=O)c1nnc([C@H](Cc2ccccc2)NC(=O)OC(C)(C)C)o1 here?
Its Potency is inconclusive [activator, single point].

With CCOc1ncccc1C(=O)Nc1ccc(-c2cn3ccsc3n2)cc1 as the compound, how does the Potency read?
Its Potency is “inactive”.

Which Potency does the source give for N#Cc1c(SCC(=O)N2CCCCC2)nsc1SCC(=O)N1CCCCC1 here?
The Potency was inconclusive [activator, single point].

Which Potency does the source give for CC(C)n1c(=N)c(C(=O)NCCc2ccccc2)cc2c(=O)n3ccccc3nc21 here?
Its Potency is “inactive”.

With Cc1cc2oc(C(=O)NCc3ccc4c(c3)OCO4)c(C)c2cc1C as the compound, how does the Potency read?
The Potency was inconclusive [activator, partial curve].

For CS(=O)(=O)N1CCN(c2ccccc2NC(=O)c2cccnc2)CC1, which Potency is on record?
The Potency was inconclusive [activator, single point].

With Clc1ccc(N2CCN(c3ncnc4c3oc3ccccc34)CC2)cc1 as the compound, how does the Potency read?
Its Potency is inconclusive [activator, full curve].

Which Potency does the source give for O=C(CS(=O)(=O)c1cn(Cc2cccc(F)c2)c2ccccc12)N1CCCCC1 here?
The Potency was inconclusive [activator, single point].

For CCOC(=O)c1c(-c2ccc(C)o2)csc1NC(=O)CSc1nnc(C)s1, which Potency is on record?
The Potency was active: 31.6 µM.

With CCN(CC)C(=O)Oc1ccc2c(=O)c(-c3ccc(OC)cc3)coc2c1 as the compound, how does the Potency read?
The Potency was inconclusive [activator, single point].

With CCc1nc(N2CCN(C(=O)c3ccco3)CC2)c2oc3ccccc3c2n1 as the compound, how does the Potency read?
Its Potency is inconclusive [activator, partial curve].

With Cc1nc2ccccc2n1CC(=O)NCc1ccccc1 as the compound, how does the Potency read?
Its Potency is inconclusive [activator, partial curve].

With CC(C)=CC(=O)Nc1ccc(Br)cc1 as the compound, how does the Potency read?
Its Potency is inconclusive [activator, single point].

For Fc1ccc(-c2cc3nc4c(c(N5CCOCC5)n3n2)CCCC4)cc1, which Potency is on record?
Its Potency is inconclusive [activator, partial curve].

For CC1=CC(C)(C)N(C(=O)CSc2nnc(-c3ccccc3)o2)c2ccc(C)cc21, which Potency is on record?
The Potency was active: 2 µM.

With O=C(OCCN(C1=NS(=O)(=O)c2ccccc21)c1ccc(Cl)cc1)c1ccco1 as the compound, how does the Potency read?
The Potency was active: 15.8 µM.

For CCc1c2c(nc3ccc(OC)cc13)OC(CC)C2 (stereo not drawn), which Potency is on record?
The Potency was inconclusive [activator, partial curve].

For CN(Cc1cnc2nc(N)nc(N)c2n1)c1ccc(C(=O)N[C@H](CCC(=O)O)C(=O)O)cc1, which Potency is on record?
Its Potency is inconclusive [activator, single point].

Which Potency does the source give for O=C(CSc1nnc(-c2cccnc2)n1-c1ccccc1)Nc1ccc2c(c1)OCO2 here?
Its Potency is inconclusive [activator, partial curve].

With N#Cc1c(NC(=O)COC(=O)C2CC3C=CC2C3)oc(-c2ccccc2)c1-c1ccccc1 (stereo not drawn) as the compound, how does the Potency read?
Its Potency is inconclusive [activator, single point].

With N#Cc1ccc(CN2CC[C@@]3(CCCN(C(=O)c4ccco4)C3)C2)cc1 as the compound, how does the Potency read?
The Potency was inconclusive [activator, full curve, poor fit].

With CCOC(=O)COc1ccc(S(=O)(=O)NCc2ccco2)cc1 as the compound, how does the Potency read?
Its Potency is inconclusive [activator, single point].

With O=C(CSc1nnc(COc2cccc3cccnc23)o1)N1CCc2ccccc21 as the compound, how does the Potency read?
The Potency was inconclusive [activator, single point].

With CCOc1ccc2nc(NC(=O)CSc3nnnn3C3CCCCC3)sc2c1 as the compound, how does the Potency read?
The Potency was “inactive”.

For Cc1cnc(CNc2ccnc(-c3ccccc3Cl)n2)cn1, which Potency is on record?
Its Potency is “inactive”.

— PubChem BioAssay AID938 (National Center for Advancing Translational Sciences (NCATS), 2007)
